We go through eleven compounds from the antibiotic and cytotoxicity screens of Wong et al. (2023).

Some of the results follow.

The assay has as its system S. aureus RN4220. Briefly: growth inhibition call (relative growth <= 0.2). The settings on record: 50 µM.
Take `COc1ccc([C@@H]([C@H](Cc2ccccc2)OC(C)=O)N2C[C@@H]3C(=NO[C@@H]3[C@@H](O)c3ccccc3)[C@@H]2Cc2ccccc2)cc1`: the growth inhibition call is “inactive”. Under `C[C@@H]1CCCCO[C@@H](CN(C)S(=O)(=O)c2cccs2)[C@@H](C)CN([C@@H](C)CO)C(=O)c2cc(NS(=O)(=O)c3cn(C)cn3)ccc2O1` stands “inactive”. With `CCCNC(=O)N(C)C[C@H]1Oc2cc(-c3ccc(C)cc3)ccc2S(=O)(=O)N([C@H](C)CO)C[C@H]1C`, the growth inhibition call is “inactive”. Under `Cc1noc(C)c1S(=O)(=O)N(C)C[C@@H]1OCCCC[C@H](C)Oc2ccc(NC(=O)Nc3ccccc3)cc2C(=O)N([C@H](C)CO)C[C@H]1C` stands “inactive”; under `C[C@H](CO)N1C[C@H](C)[C@@H](CN(C)Cc2ccc(Cl)c(Cl)c2)OCc2ccccc2-c2ccccc2C1=O`, “inactive”; under `O=c1c(O)c(-c2ccccc2)oc2cc(O)ccc12`, “inactive”. Under `COc1ccc([C@@H]([C@H](Cc2ccccc2)OC(C)=O)N2C[C@@H](OC(C)=O)[C@H]3C(=NO[C@@H]3c3ccccc3)[C@@H]2Cc2ccccc2)cc1` stands “inactive”; under `CC(C)NC(=O)N(C)C[C@@H]1Oc2c(NC(=O)C3CCOCC3)cccc2C(=O)N([C@@H](C)CO)C[C@H]1C`, “inactive”. As for `CC[N+](CC)(CC)CCOc1ccc(/C=C/c2ccccc2)cc1`, the growth inhibition call was “inactive”. `C[C@@H]1CCCCO[C@H](CN(C)Cc2ccncc2)[C@H](C)CN([C@@H](C)CO)C(=O)c2cc(NC(=O)C3CCCCC3)ccc2O1`: the growth inhibition call is “inactive”.

`CCCN(C)C[C@H]1OCCCC[C@H](C)Oc2ccc(NC(=O)NC3CCCCC3)cc2C(=O)N([C@@H](C)CO)C[C@H]1C`: the growth inhibition call was “inactive”.
